Data reported in PubChem BioAssay AID493208 (National Center for Advancing Translational Sciences (NCATS), 2011).
About 340 (0.77%) of roughly 44,000 compounds were called active. Roughly 5% stayed inconclusive and do not appear here. The call rests on the fitted dose curve; in most records, active means well fitted inhibition curve with a large enough effect; inconclusive means small, poorly fitted or top-dose-only effect; inactive means flat fitted curve, though single readings scatter. The list shows a part of the results.

Assay: Acumen qHTS Assay for Inhibitors of the mTORC1 Signaling Pathway in MEF (Tsc2-/-, p53-/-) Cells: Sytravon;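 further: plate controls were DMSO for no effect and rapamycin for full effect; nearly all actives have a fitted effect of over 50% in size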
Conditions: phospho-rpS6 immunofluorescence/PI, 24 h; series mostly up to 38.3 µM; activity change, negative = inhibition: at the top concentration
Method in brief: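 Read-out: phospho-S6 Alexa-488 intensity over PI intensity per well, scored as % active cells using thresholds from rapamycin (7.5 nM) and DMSO controls. Tsc2-/-, p53-/- MEFs exposed to compound for 24 h; PI cell count recorded as viability.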

Activity change, negative = inhibition, inactive:
Cc1ccc(-n2ncc3c(N4CCN(CCO)CC4)ncnc32)cc1Cl 16.2%
CCOc1cc(C2c3c(oc4ccc(F)cc4c3=O)C(=O)N2Cc2ccco2)ccc1O (stereo not given) -1.46%
Cc1ccc(-n2c(SCC(=O)Nc3ccc4c(c3)OCO4)nc3c([nH]c4ccccc43)c2=O)cc1 -6.11%
Cc1ccc(-c2cc(C(=O)NCc3cnn(C)c3)c3cc(Br)ccc3n2)cc1 -17%
CCc1ccccc1N(C)C(=O)c1cnc(N2CCOCC2)c2ccccc12 -4.84%
Cc1cccc(C(=O)N2CCc3cc(CNC(=O)Cc4ccc(F)cc4)ccc32)c1 -9.66%
Cc1cc(Br)ccc1NC(=O)c1cn(C2CCCC2)c(=O)c2c1c1ccccc1n2C -3.99%
Cc1ccc(Cc2nc3ccccc3nc2SCC(=O)NCc2ccc(F)cc2)cc1 -0.0206%
COc1ccc(CCNc2ncnc3c2c(-c2ccccc2)cn3-c2ccc(F)cc2)cc1OC 0.605%
CCC(=O)C1=C(c2cccc([N+](=O)[O-])c2)N(C(=O)CC)n2c(nnc2-c2ccccc2)S1 -3.19%
Cc1ccc2oc(=O)c3cnn(CC(=O)N4CCN(c5cc(Cl)ccc5C)CC4)c3c2c1 -1.84%
COc1ccc(CCNC(=O)Cn2c(=O)n(-c3cc(OC)c(OC)c(OC)c3)c(=O)c3ccccc32)cc1OC 9.56%
COc1cccc(CNc2nc3c(-c4ccccc4)nnn3c3ccccc23)c1 -1.37%
CCOc1ccc(NC(=O)c2cc(S(=O)(=O)N3CCCCC3)c[nH]2)cc1 -4.67%
CN(Cc1ccccc1)C(=O)CSc1nc2ccsc2c(=O)n1-c1ccc(F)cc1 -1.86%
COc1cccc(NS(=O)(=O)c2ccc3[nH]cc(C(=O)NCCc4ccccc4)c(=O)c3c2)c1 0.0814%
COc1ccc(NC(=O)CCc2nnc3n(C)c(=O)c4sccc4n23)cc1Cl 5.35%
CCn1cc(C(=O)NCCCN(CC(C)C)CC(C)C)c(=O)c2cc(S(=O)(=O)N(C)C3CCCCC3)ccc21 -5.16%
COc1cccc(N2C(=O)N(Cc3ccc(C#N)cc3)c3ccccc3S2(=O)=O)c1 -4.32%
CCc1ccccc1NC(=O)Cn1c(=O)n(CC2CCC(C(=O)NCCc3ccccc3)CC2)c(=O)c2ccccc21 (stereo not given) -15.7%
CCC(=O)N1CCc2cc(Br)cc(S(=O)(=O)CCC(=O)Nc3ccc(C)c(C)c3)c21 0.214%
COc1ccc(-c2noc(-c3ccc(NCc4cccnc4)c([N+](=O)[O-])c3)n2)cc1 -1%
O=C(NCc1ccccc1Cl)c1cnc2sc(N3CCOCC3)nn2c1=O 3.88%
COc1ccc(C2=NS(=O)(=O)N(C)C(C(=O)NCc3ccccc3)=C2)cc1OC 0.497%
COc1ccc(-c2cc(C(=O)Nc3ccn(Cc4ccc(C)cc4)n3)no2)cc1OC -15%
CCc1ccc(NC(=O)C(=O)NCC(c2ccc3c(c2)OCO3)N2CCOCC2)cc1 (stereo not given) -6.84%
Cc1ccc(S(=O)(=O)c2nc(-c3ccccc3Cl)oc2N2CCCCCC2)cc1 -98.5%
CCS(=O)(=O)N1CCC(n2c(C)nc3cccnc32)CC1 1.07%
Cc1ccc(Cl)c(NC(=O)Nc2csc3c2CCCC3)c1 -8.24%
CN1C(=O)c2ccccc2Sc2ccc(NC(=O)COc3ccccc3)cc21 -18.8%
COc1cc2oc(=O)c(CC(=O)N3CCCCC3)c(C)c2cc1OC 0.556%
COc1ccc(C(=O)/C=C/c2cn(CC(O)CN(CC(C)C)CC(C)C)c3ccccc23)cc1 (stereo not given) -9.63%
CCOC(=O)c1nc(N2CCN(c3ccc(F)cc3)CC2)c2c(C)noc2n1 0.473%
CCCC(=O)N(c1ccc2oc(C)c(C(C)=O)c2c1)S(=O)(=O)c1ccc(C)cc1 -3.51%
CCn1c(=O)n(-c2ccc(F)c(Cl)c2)c(=O)c2c3c(sc21)CN(C(C)=O)CC3 0.278%
COc1cccc(C(=O)Nc2ccc(-c3nc4ccccc4s3)cc2Cl)c1 1.14%
COc1cccc(N2C(=O)CSC23C(=O)N(Cc2ccccc2)c2ccccc23)c1 (stereo not given) 1.9%
Cc1ccc(C)c(CSc2cn(CC(=O)N3CCCCCC3)c3ccccc23)c1 -0.55%
COc1ccc(NC(=O)CCCc2nnc3n(CCC(C)C)c(=O)c4sccc4n23)c(OC)c1 4.45%
COc1ccc(-c2csc3nc(-c4ccc(F)cc4)oc(=O)c23)cc1 -2.1%
COCCNC(=O)c1ccc(-n2c(-c3ccccc3)cc3c2CCCCC3)cc1 0%
Cc1ccccc1-n1c(=O)c2c3c(sc2n2cnnc12)CCCC3 -6.48%
COc1ccc(CNC(=O)C2CCN(c3nnc(-n4cccc4CNc4ccc(C)cc4)s3)CC2)c(OC)c1 4.07%
Cc1ccc(S(=O)(=O)c2nc(-c3cccc(C)c3)oc2N2CCCCC2)cc1 -4.13%
O=S(=O)(c1ccc(F)cc1)N1CCC(n2c(C(F)(F)F)nc3cccnc32)CC1 0%
O=S(=O)(Nc1cccc(-c2ccc(N3CCCC3)nn2)c1)c1ccc(F)cc1F 0.612%
COc1ccc(N2CCN(C(=O)CN(C)S(=O)(=O)c3cccs3)CC2)cc1 -20%
COc1ccc(Cn2ccnc2SCC(=O)Nc2cc(C(F)(F)F)ccc2Cl)cc1 0.0302%
CCN(CC)C(=O)Cn1c(=O)cc(C)c2c(C)nn(C)c21 -16.8%
CCOC(=O)c1ccccc1NC(=O)c1sc2ccccc2c1Cl -5.21%
COc1ccc(-c2cn3nc(N4CCCC(C(=O)NCc5ccccc5C)C4)sc3n2)cc1 (stereo not given) -0.125%
O=C(CN(CCc1ccccc1)S(=O)(=O)c1ccccc1)NCc1ccc(Cl)cc1 9.63%
Cc1ccc(Cl)cc1N1CCN(C(=O)c2cc(S(=O)(=O)N3CCCCCC3)cn2C)CC1 -2.39%
Cc1cc(Cl)ccc1Nc1ncnc2onc(C)c12 -3.37%
O=C(Nc1ccccc1Cl)C1CCN(c2nc3ccccc3[nH]2)CC1 6.81%
COc1cccc(NC(=O)CSCn2nnc3c(=O)[nH]c(Cc4ccc(F)cc4)nc32)c1 5.67%
CN(Cc1ccc(F)cc1)S(=O)(=O)c1nnc(NC(=O)c2ccc(F)cc2)s1 0.68%
Fc1ccccc1OCc1nc(-c2ccc(-n3cccc3)cc2)no1 1.99%
COC(=O)c1ccc2c(c1)N(CC(=O)Nc1cccc(C(F)(F)F)c1)C(=O)c1ccccc1S2 0%
O=C(CSc1nc2c([nH]c3ccccc32)c(=O)n1-c1ccccc1F)Nc1ccccc1C(F)(F)F -0.289%
COc1ccc(NC(=O)C2CCCN(S(=O)(=O)c3ccc4c(c3)CCCN4C(C)=O)C2)cc1 (stereo not given) 1.32%
Cc1ccc2c(c1)CC(C)N2S(=O)(=O)c1nnc(NC(=O)c2ccccc2F)s1 (stereo not given) 4.36%
CC(C)c1ccccc1NC(=O)CN(c1ccccc1)S(=O)(=O)N(C)C 7.25%
O=C(NCCCN1CCN(c2ccc(F)cc2)CC1)c1sc2ncccc2c1-n1cccc1 -12.7%
O=C(Cn1ccn(-c2cccc(Cl)c2)c(=O)c1=O)c1ccc(F)cc1 10.4%
Cc1ccc(NC(=O)CCS(=O)(=O)c2ccc(Br)cc2)c(C)c1 -1.15%
CCOc1ccc(CNC(=O)c2[nH]c3ccccc3c2Sc2ccc(C)cc2)cc1 -21%
CCOC(=O)c1cc(-c2ccccc2)n(CCC(=O)Nc2ccc(C)cc2Cl)c1C -0.438%
COc1ccc(OC)c(S(=O)(=O)N2Cc3ccccc3CC2C(=O)Nc2ccc(Cl)cc2)c1 (stereo not given) -20.5%
CCOc1ccc(-c2nn(-c3ccccc3)cc2C2NC(=O)NC(C)=C2C(=O)OC(C)C)cc1C (stereo not given) 6.99%
Cc1cc(C)cc(NC(=O)CCS(=O)(=O)c2ccc3nc(C)sc3c2)c1 3.69%
Cc1ccc(C(=O)N2CCC(N3CCN(Cc4ccc(F)cc4)C(=O)C3=O)CC2)cc1 -2.98%
O=C1C(c2ccc(F)cc2)N(Cc2ccccc2Cl)C(=O)CN1C1CCCCC1 (stereo not given) 1.9%
Cc1ccc(-n2nc(CO)c(C(=O)NCCCCc3ccccc3)n2)cc1 -2.57%
CCOC(=O)c1[nH]c(C)c(CCC(=O)NC(C)c2ccccc2)c1C (stereo not given) 2.69%
O=C(Nc1cc2ccc(O)cc2oc1=O)c1ccc(F)cc1 1.04%
COc1ccc(CNC(=O)c2cc3c(=O)n4cccc(C)c4nc3s2)cc1 -3.96%
Cc1c(C(=O)Nc2ccc(F)c(F)c2)oc2ccc(S(=O)(=O)N(C)C3CCCCC3)cc12 7.91%
COc1ccc(CCNC(=O)CCCCn2c(=O)c3ccccc3n(Cc3ccc(Cl)cc3)c2=O)cc1OC -0.636%
COc1cccc(CNC(=O)c2oc3ccc4c(c3c2C)C(=O)CC(C)(C)O4)c1OC -6.24%
Cc1cccc(CNC(=O)Cc2ccc(NC(=O)N3CCCCc4ccccc43)cc2)c1 2.34%
CCOc1ccc(-c2cn3c(n2)sc2cc(C(=O)NCCCN(CC)CC)ccc23)cc1 -4.14%
O=C(Nc1ccc(F)cc1)C1CCCN(c2ncnc3c2nc2n3CCCCC2)C1 (stereo not given) -9.2%
Cc1ccc(N(C)C(=O)Cn2cc(S(=O)(=O)N3CCCC3)c(S(=O)(=O)N3CCCC3)c2)cc1 -8.2%
Cc1ccc(C(=O)Nc2nc(-c3nnn(-c4cccc(Cl)c4C)c3C)ns2)cc1C 1.05%
COc1cccc(-c2nc(CS(=O)(=O)CC(=O)NCCc3ccc(OC)c(OC)c3)c(C)o2)c1 2.76%
Cn1c(=O)c2c(n3ncnc13)NC(=O)CC2c1cccc(F)c1 (stereo not given) 1.01%
COc1ccc(NS(=O)(=O)c2ccc3c(c2)CC(C)N3C(C)=O)c(OC)c1 (stereo not given) -15%
CCOC(=O)C1=C(CN2CCN(c3cccc(OC)c3)CC2)NC(=O)NC1c1ccc(OC)cc1 (stereo not given) -0.347%
C=Cc1ccc(CSc2nnc(C)n3c2cc2occc23)cc1 -3.12%
COc1ccc(NC(=O)c2oc3c(c2C)-c2nn(Cc4ccccc4Cl)cc2CC3)cc1OC 4.08%
Cc1ccc(-n2c(=O)c3c(cnn3C)n(CC(=O)Nc3c(C)cccc3C)c2=O)cc1 0.968%
Cc1ccc2c(CC(=O)N(Cc3ccc(Cl)cc3)Cc3ccco3)coc2c1 -23%
Cc1ccccc1Nc1cc(C(=O)NCCc2ccc(Cl)cc2)c2ccccc2n1 3.71%
COc1cc(C2c3c(oc4ccc(C)cc4c3=O)C(=O)N2Cc2ccccc2)ccc1O (stereo not given) -13%
